Measurements reported in PubChem BioAssay AID651820 (National Center for Advancing Translational Sciences (NCATS), 2012).
In all, about 340,000 compounds went through this assay and about 12,000 (3.5%) were called active. Inconclusive results, whose numbers are uncertain, are shown with a selection of clear calls. The call rests on the fitted dose curve; in most records, active means well fitted inhibition curve with a large enough effect; inconclusive means small, poorly fitted or top-dose-only effect, or another doubt; inactive means no such curve, though single readings can be large or run the other way. No potency is given beside an inconclusive call; the fits are too rough.

Experiment: qHTS Assay for Inhibitors of Hepatitis C Virus (HCV)
Settings: Huh7.5.1 HCVcc-Cre (HCVcc is cell-culture hepatitis C virus) infection, luciferase reporter, 44 h; series mostly up to 41.8 µM
Procedure, shortened: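 Cells (1,000/well) were plated 4 h before compound, then infected with HCVcc-Cre virus (~0.5 moi). After 44 h further culture, infection was read as luciferase luminescence following a 15 min substrate incubation at room temperature.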
Potency means the concentration at half of the fitted maximal effect; tags describe the fitted curve by direction and shape.

| Compound | Potency |
| --- | --- |
| CC(=O)N1CCN(C(=O)c2cc(S(=O)(=O)N(C)Cc3ccccc3)ccc2Cl)CC1 | inactive |
| Cc1nc2c(-c3ccccc3)c[nH]n2c(=O)c1Cc1ccccc1 | inconclusive [inhibitor, full curve, poor fit] |
| COc1ccc2cc([C@H](C)C(=O)OCc3cn(CC(=O)c4ccc(O)cc4)nn3)ccc2c1 | inconclusive [inhibitor, full curve, poor fit] |
| O=C(C[n+]1cc(-c2ccc(F)cc2)n2c1CCC2)N1c2ccccc2Sc2ccccc21 | inactive |
| COc1cc(C(C[N+](=O)[O-])c2c(C)cc3ccccn23)ccc1O (stereo not given) | inconclusive [inhibitor, single point] |
| CN(C[C@H](Cc1ccccc1)N(C[C@H](Cc1ccccc1)N(CC1(c2ccccc2)CC1)N=O)N=O)N=O | inconclusive [inhibitor, full curve] |
| COc1ccc(CN2C(=O)c3ccccc3C2C(=O)NCCc2ccccc2)c(OC)c1 (stereo not given) | inactive |
| COCCN=C1N[C@@H](c2ccc(Br)cc2)C(C(=O)OC)=C(C)N1Cc1ccccc1 | active: 3.55 µM |
| CSCC[C@H](NC(=O)OC(C)(C)C)c1nnc(SCc2cccc(F)c2)o1 | inconclusive [inhibitor, partial curve] |
| O=C(NN=Cc1ccccc1O)C(O)c1ccccc1 (stereo not given) | inconclusive [inhibitor, single point] |
| O=C(c1ccc(COc2ccc(Cl)cc2)o1)N1CCN(Cc2ccc3c(c2)OCO3)CC1 | active: 8.91 µM |
| Cc1cc(SCC(=O)Nc2ccccc2)n2ncc(-c3ccccc3)c2n1 | inconclusive [inhibitor, full curve, poor fit] |
| COc1cc2c(=O)n(CC3CCCO3)c(=O)n(CC(=O)Nc3cccc(Cl)c3)c2cc1OC (stereo not given) | inactive |
| CC(C)=NOC(=O)c1ccc(-c2ccccc2)cc1 | inactive |
| Cc1ccc(/C=N/NC(=O)Cc2ccc(Cl)cc2)c(O)c1 | inconclusive [inhibitor, single point] |
| COCCNS(=O)(=O)c1ccc2c(c1)oc(=O)c1cc(S(=O)(=O)NCCOC)ccc12 | inactive |
| CCOc1cccc(/C=N/NS(=O)(=O)c2ccc(C)c([N+](=O)[O-])c2)c1O | inactive |
| O=C(c1cc(COc2c(F)cccc2F)on1)N1CCC(c2ccccc2Cl)C1 (stereo not given) | inactive |
| Cc1cccc(C(=O)NC2CCN(S(=O)(=O)c3cccc(F)c3)CC2)c1 | inactive |
| CCOC(=O)C1(CCOc2ccccc2)CCN(Cc2ccc(OC)cc2)CC1 | active: 12.6 µM |
